According to article PMC8508116:
No constants are given. Whether binding was seen depends on the method and setting. Binding seen in cells or lysates may run through a third protein. Some binding calls cover weakened binding; strength is not graded here. Where a sequence is shown, tags or fusion partners need not be part of it.

Chains of the proteins cited; added tags and fusions are not shown.
UniProt Q96PU5: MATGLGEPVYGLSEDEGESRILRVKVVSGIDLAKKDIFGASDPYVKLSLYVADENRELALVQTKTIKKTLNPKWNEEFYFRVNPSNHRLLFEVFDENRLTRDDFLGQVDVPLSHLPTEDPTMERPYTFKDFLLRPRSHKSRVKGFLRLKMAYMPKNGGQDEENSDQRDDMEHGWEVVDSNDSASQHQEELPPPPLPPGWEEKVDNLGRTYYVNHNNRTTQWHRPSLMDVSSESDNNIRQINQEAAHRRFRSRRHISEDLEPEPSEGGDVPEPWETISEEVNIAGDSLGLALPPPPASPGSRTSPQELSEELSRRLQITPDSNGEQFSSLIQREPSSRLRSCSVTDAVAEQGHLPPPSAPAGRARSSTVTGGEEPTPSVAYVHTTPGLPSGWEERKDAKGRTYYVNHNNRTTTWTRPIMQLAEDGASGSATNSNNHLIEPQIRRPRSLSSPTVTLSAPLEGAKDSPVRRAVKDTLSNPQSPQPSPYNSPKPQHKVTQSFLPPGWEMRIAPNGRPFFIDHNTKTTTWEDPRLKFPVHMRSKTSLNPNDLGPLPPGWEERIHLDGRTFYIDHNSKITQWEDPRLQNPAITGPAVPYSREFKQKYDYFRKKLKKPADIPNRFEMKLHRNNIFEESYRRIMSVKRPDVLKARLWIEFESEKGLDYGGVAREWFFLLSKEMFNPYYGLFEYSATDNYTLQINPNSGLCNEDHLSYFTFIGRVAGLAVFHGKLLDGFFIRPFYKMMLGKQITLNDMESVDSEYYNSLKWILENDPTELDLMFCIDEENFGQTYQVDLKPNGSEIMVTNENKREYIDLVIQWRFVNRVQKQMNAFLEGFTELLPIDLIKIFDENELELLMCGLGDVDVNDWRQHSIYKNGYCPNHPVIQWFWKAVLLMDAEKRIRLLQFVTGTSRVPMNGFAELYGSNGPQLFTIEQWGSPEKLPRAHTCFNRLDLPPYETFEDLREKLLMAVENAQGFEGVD
UniProt O60346: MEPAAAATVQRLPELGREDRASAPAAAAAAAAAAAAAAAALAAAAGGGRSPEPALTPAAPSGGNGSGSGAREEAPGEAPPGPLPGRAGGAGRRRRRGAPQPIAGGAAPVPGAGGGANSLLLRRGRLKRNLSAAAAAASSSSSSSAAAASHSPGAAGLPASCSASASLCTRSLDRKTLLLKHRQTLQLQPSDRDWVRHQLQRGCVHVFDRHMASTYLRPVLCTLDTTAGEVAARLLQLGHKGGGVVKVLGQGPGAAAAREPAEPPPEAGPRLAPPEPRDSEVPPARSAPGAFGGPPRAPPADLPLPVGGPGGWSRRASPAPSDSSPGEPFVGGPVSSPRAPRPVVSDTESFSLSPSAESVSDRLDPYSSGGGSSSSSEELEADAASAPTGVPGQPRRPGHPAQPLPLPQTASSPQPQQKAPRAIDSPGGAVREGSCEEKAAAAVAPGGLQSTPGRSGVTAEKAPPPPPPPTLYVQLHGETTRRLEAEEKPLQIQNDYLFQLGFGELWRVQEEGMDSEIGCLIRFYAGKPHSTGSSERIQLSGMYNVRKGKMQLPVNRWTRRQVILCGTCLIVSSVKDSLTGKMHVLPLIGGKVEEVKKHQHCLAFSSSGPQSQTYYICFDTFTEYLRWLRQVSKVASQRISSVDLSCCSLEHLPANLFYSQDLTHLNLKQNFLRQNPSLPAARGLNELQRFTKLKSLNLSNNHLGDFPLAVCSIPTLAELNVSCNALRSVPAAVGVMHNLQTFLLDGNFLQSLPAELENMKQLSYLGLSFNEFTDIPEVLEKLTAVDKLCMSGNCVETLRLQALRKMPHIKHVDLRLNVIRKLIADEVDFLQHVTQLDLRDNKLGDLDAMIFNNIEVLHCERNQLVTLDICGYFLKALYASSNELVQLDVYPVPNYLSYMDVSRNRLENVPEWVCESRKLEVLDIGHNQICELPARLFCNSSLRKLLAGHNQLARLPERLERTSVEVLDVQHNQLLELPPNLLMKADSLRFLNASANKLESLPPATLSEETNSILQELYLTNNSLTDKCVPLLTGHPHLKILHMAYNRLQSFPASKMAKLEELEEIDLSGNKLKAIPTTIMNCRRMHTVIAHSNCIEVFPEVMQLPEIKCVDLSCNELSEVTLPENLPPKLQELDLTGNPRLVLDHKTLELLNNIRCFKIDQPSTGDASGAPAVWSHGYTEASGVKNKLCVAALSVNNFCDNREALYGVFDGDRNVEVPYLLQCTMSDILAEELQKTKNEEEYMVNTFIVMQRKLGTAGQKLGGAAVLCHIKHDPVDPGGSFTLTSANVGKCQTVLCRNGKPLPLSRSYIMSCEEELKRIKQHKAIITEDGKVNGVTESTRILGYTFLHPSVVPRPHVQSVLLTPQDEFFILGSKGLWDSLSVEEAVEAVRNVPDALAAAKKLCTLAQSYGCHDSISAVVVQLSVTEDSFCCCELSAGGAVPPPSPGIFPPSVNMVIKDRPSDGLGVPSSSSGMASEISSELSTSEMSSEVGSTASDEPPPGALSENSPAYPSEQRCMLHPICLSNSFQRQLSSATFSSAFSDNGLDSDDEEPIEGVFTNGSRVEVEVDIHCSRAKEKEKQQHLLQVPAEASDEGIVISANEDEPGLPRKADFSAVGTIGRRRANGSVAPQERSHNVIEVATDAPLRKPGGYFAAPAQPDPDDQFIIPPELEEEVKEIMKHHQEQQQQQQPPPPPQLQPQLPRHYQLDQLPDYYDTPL

What follows are molecules tested against NEDD4-2, an E3 ubiquitin ligase (UniProt Q96PU5) (assay: co-IP; HEK-293T cells transfected with the indicated plasmids; lysates in TNE buffer (10 mM Tris pH 7.4, 150 mM NaCl, 1 mM EDTA, 1% NP-40) with protease and phosphatase inhibitors; indicated antibodies overnight at 4 °C, protein G or A beads 50 min; MG132 present for NEDD4-2/PHLPP1 and …; increasing amounts of TMEPAI-V5 in Figure 7F).

Row | Molecule | binding
1 | Transmembrane prostate androgen-induced protein (TMEPAI) isoform A, wild type, V5-tagged (protein, UniProt Q969W9 1-287) MHRLMGVNSTAAAAAGQPNVSCTCNCKRSLFQSMEITELEFVQIIIIVVVMMVMVVVITCLLSHYKLSARSFISRHSQGRRREDALSSEGCLWPSESTVSGNGIPEPQVYAPPRPTDRLAVPPFAQRERFHRFQPTYPYLQHEIDLPPTISLSDGEEPPPYQGPCTLQLRDPEQQLELNRESVRAPPNRTIFDSDLMDSARLGGPCPPSSNSGISATCYGSGGRMEGPPPTYSEVIGHYPGSSFQHQQSSGPPSLLEGTRLHHTHIAPLESAAIWSKEKDKQKGHPL | binds
2 | TMEPAI isoform A SIM P186A mutant (protein, UniProt Q969W9 1-287) MHRLMGVNSTAAAAAGQPNVSCTCNCKRSLFQSMEITELEFVQIIIIVVVMMVMVVVITCLLSHYKLSARSFISRHSQGRRREDALSSEGCLWPSESTVSGNGIPEPQVYAPPRPTDRLAVPPFAQRERFHRFQPTYPYLQHEIDLPPTISLSDGEEPPPYQGPCTLQLRDPEQQLELNRESVRAAPNRTIFDSDLMDSARLGGPCPPSSNSGISATCYGSGGRMEGPPPTYSEVIGHYPGSSFQHQQSSGPPSLLEGTRLHHTHIAPLESAAIWSKEKDKQKGHPL | binds
3 | TMEPAI isoform A double PY motif mutant (Y161A, Y232A) (protein, UniProt Q969W9 1-287) MHRLMGVNSTAAAAAGQPNVSCTCNCKRSLFQSMEITELEFVQIIIIVVVMMVMVVVITCLLSHYKLSARSFISRHSQGRRREDALSSEGCLWPSESTVSGNGIPEPQVYAPPRPTDRLAVPPFAQRERFHRFQPTYPYLQHEIDLPPTISLSDGEEPPPAQGPCTLQLRDPEQQLELNRESVRAPPNRTIFDSDLMDSARLGGPCPPSSNSGISATCYGSGGRMEGPPPTASEVIGHYPGSSFQHQQSSGPPSLLEGTRLHHTHIAPLESAAIWSKEKDKQKGHPL | no binding

Other lines, results leading:

Row | binding | Molecule
4 | binds | Pleckstrin homology (PH) domain and leucine-rich repeat protein phosphatase 1 (PHLPP1) (from UniProt O60346 1-1717) (enzyme)
5 | binds | TMEPAI isoform A SIM 4A mutant (PPNR186-189 to AAAA) (protein, UniProt Q969W9 1-287) MHRLMGVNSTAAAAAGQPNVSCTCNCKRSLFQSMEITELEFVQIIIIVVVMMVMVVVITCLLSHYKLSARSFISRHSQGRRREDALSSEGCLWPSESTVSGNGIPEPQVYAPPRPTDRLAVPPFAQRERFHRFQPTYPYLQHEIDLPPTISLSDGEEPPPYQGPCTLQLRDPEQQLELNRESVRAAAAATIFDSDLMDSARLGGPCPPSSNSGISATCYGSGGRMEGPPPTYSEVIGHYPGSSFQHQQSSGPPSLLEGTRLHHTHIAPLESAAIWSKEKDKQKGHPL

The molecules below were run against Pleckstrin homology (PH) domain and leucine-rich repeat protein phosphatase 1 (PHLPP1) (UniProt O60346) in the same assay as above.

Row | binding | Molecule
6 | no binding | Transmembrane prostate androgen-induced protein (TMEPAI) isoform A, wild type, V5-tagged (protein, UniProt Q969W9 1-287) MHRLMGVNSTAAAAAGQPNVSCTCNCKRSLFQSMEITELEFVQIIIIVVVMMVMVVVITCLLSHYKLSARSFISRHSQGRRREDALSSEGCLWPSESTVSGNGIPEPQVYAPPRPTDRLAVPPFAQRERFHRFQPTYPYLQHEIDLPPTISLSDGEEPPPYQGPCTLQLRDPEQQLELNRESVRAPPNRTIFDSDLMDSARLGGPCPPSSNSGISATCYGSGGRMEGPPPTYSEVIGHYPGSSFQHQQSSGPPSLLEGTRLHHTHIAPLESAAIWSKEKDKQKGHPL
